# Assay results published in PubChem BioAssay AID662 (National Center for Advancing Translational Sciences (NCATS), 2007).
# About 1,800 (2.5%) of roughly 71,000 compounds were called active. Inconclusive means that the source gave no clear call. Such entries were picked first, then a sample of the others. Calls follow the shape of the dose curve; as a rule, active = well fitted activation curve with a large enough effect in the signal ratio, with a control signal flat (not every such curve was filed as active); inconclusive = small, poorly fitted or top-dose-only effect, or effect the other way, or a change in a side signal; inactive = flat fitted curve, though single readings scatter; the % refers to the signal ratio. Potencies of inconclusive entries are doubtful fits and often do not repeat.
# Experiment: Cell signaling CRE-BLA (Fsk stim); as to activity change, negative = inhibition: % of control where 0% means no effect
# Conditions: CHO CRE-bla reporter (cAMP response element driving beta-lactamase), forskolin EC10, beta-lactamase ratio; activity change, negative = inhibition: at 38.2 µM (top of the series) unless noted
# Outline: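 qHTS titration format; CRE-bla CHO reporter; stimulus EC10 NKH 477, a water-soluble forskolin. Read: CCF4 460/530 nm ratio. Potency expressed as AC50 for activators or inhibitors.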
# Potency is read from the fitted curve at half-maximal effect; tags tell the direction and shape of the fitted curve.
SMILES,Potency,"activity change, negative = inhibition"
c1ccc(-c2nc3nonc3nc2-c2ccccc2)cc1,"inconclusive: 5.01 µM [rising, partial curve]",–
O=C(NCC1CCCO1)c1c(O)c2cccc3c2n(c1=O)CCC3 (stereo not drawn),–,inactive: 10.8%
CCc1nnc(NC(=O)C2CCCN2S(=O)(=O)c2ccccc2)s1 (stereo not drawn),–,inconclusive: -13%
O=C(c1ccco1)N1CCN(C(=O)C2CCN(S(=O)(=O)c3cccc4nsnc34)CC2)CC1,"inconclusive: 0.0794 µM [falling, full curve, poor fit]",–
Nc1c(S(=O)(=O)c2cccc(Cl)c2)c2nc3ccccc3nc2n1CCN1CCOCC1,active: 12.6 µM,–
Cc1cccc(CNc2ccnc(-c3cccnc3)n2)c1,–,inconclusive: 23.5%
Cc1cc(NC(=O)CC2CCCC2)n(-c2nc3ccccc3[nH]2)n1,"inconclusive: 3.16 µM [rising, full curve]",–
COC(=O)c1cccc(NC2CC(=O)N(c3ccc(OC)c(OC)c3)C2=O)c1 (stereo not drawn),–,inactive: 7.95%
O=C(CSc1nnc(Cc2ccccc2)o1)N1CCc2ccccc21,–,inconclusive: -6.33%
COc1ccc(-c2cc(C(=O)OCC(=O)N3CCCC3)c3ccccc3n2)cc1,"inconclusive: 12.6 µM [rising, single point]",–
CC[C@H](C)C(=O)O[C@H]1CCC=C2C=C[C@H](C)[C@H](CC[C@@H]3C[C@H](O)CC(=O)O3)[C@H]21,"inconclusive: 15.8 µM [rising, partial curve, poor fit]",–
COc1cccc(Nc2ncc3nc(-c4ccccc4)c(=O)n(Cc4cccs4)c3n2)c1,–,inconclusive: -24.9% [fluorescent]
Nc1nc2ccc(N3CCOCC3)cc2s1,–,inconclusive: 3.74%
COc1ccc(NC(=O)Cn2cccc2)cc1Cl,–,inactive: -2.8%
O=C1C=CC(=O)c2c1ccc1c2ccc2ccccc21,–,inactive: 4.87% [at 17.1 µM]
CCCn1c(-c2ccc(F)cc2)nc2c(NCCN3CCCC3)nc(C)nc21,–,inactive: 5.56%
CSC1=C(C#N)C(c2ccccc2C)C(C#N)=C(N)N1 (stereo not drawn),"inconclusive: 10 µM [rising, single point]",–
O=c1nc(-c2ccccc2)cc(-c2ccccc2)[nH]1,"inconclusive: 2 µM [rising, partial curve]",–
CCC1C(=O)OCC1Cc1cncn1C (stereo not drawn),–,inactive: 7.43%
O=C(NCCCN1CCOCC1)C1CC(=O)N(CCc2ccccc2)C1 (stereo not drawn),–,inconclusive: 18.1%
Cc1ccc(Nc2cc(C)nc3nc(C)nn23)c(C)c1,"inconclusive: 10 µM [rising, single point]",–
CCOC(=O)c1cccc(NC(=O)CSc2nc3cccnc3n2C)c1,–,inactive: 26.2%
Nc1cc(Cl)c([N+](=O)[O-])cc1O,–,inactive: -13.4%
